{
  "source": "the supplement of paper PMC11417369",
  "note": "± gives the standard deviation of the averaged measurements. Some of the results follow.",
  "data": [
    {"test_system": "PfAP2-LT AP2 domain (GST-tagged)", "experiment": "gcPBM binding intensity (ln(normalized median fluorescence intensity)); higher = stronger DNA binding", "summary_of_the_method": "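Binding intensity is defined as the maximum Masliner-normalised natural-log median intensity across replicate spots for either probe orientation. It was measured on an Agilent 4 × 180k array of primer-extended double-stranded 36-bp intergenic genomic probes and negative controls, to which GST-tagged P. falciparum DNA-binding domains made in E. coli were applied for 1 h in 1× PBS with 1% milk, 0.2 mg/ml BSA, 0.5% salmon testes DNA and 0.03% Triton X-100. Detection was by Alexa488 anti-GST antibody and scanning at 488 nm.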", "values": [
      {"sequence": "AAAAATTTTCAAGTGTGTACATATTTTCATTTAACA [XGTACX_site6186]", "gcPBM binding intensity (ln)": "8.79 ± 0.36"},
      {"sequence": "AAGAAAAAGTATCCTCTATCTTTATATAAACTATTA [TGCATGCA_negctrl_site2]", "gcPBM binding intensity (ln)": "8.51 ± 0.53"},
      {"sequence": "TTTTTATTTAGCTAAGCATGCTAACGATGACACTTC [TGCATGCA_site79]", "gcPBM binding intensity (ln)": "8.73 ± 0.49"},
      {"sequence": "TTTATACTTTTAAATTGTACTATAAAAAGGAATACA [XGTACX_site2537]", "gcPBM binding intensity (ln)": "8.2 ± 0.4"},
      {"sequence": "TAATAAAAAATTAAAAAAAATAAAAATAAAAATAAA [GTGCAC_negctrl_site78]", "gcPBM binding intensity (ln)": "8.39 ± 0.6"},
      {"sequence": "CATACATATACTTTGTGTACATATATATATTATATA [XGTACX_site97]", "gcPBM binding intensity (ln)": "8.74 ± 0.44"},
      {"sequence": "ATGTATATATTTTTATGTACATATTTTTAATTTATA [XGTACX_site2982]", "gcPBM binding intensity (ln)": "8.62 ± 0.38"},
      {"sequence": "GAATATTCAACATAATGTACAAGTATTCATTTCTTT [XGTACX_site7860]", "gcPBM binding intensity (ln)": "8.66 ± 0.44"},
      {"sequence": "CAAAAATAAAAGAAATGTACAAAAAATAATAAAAAA [XGTACX_site6597]", "gcPBM binding intensity (ln)": "8.87 ± 0.58"},
      {"sequence": "AAAATTCATAAATACACACACGCACATATATATATA [CACACA_site4227]", "gcPBM binding intensity (ln)": "9.855 ± 0.078"},
      {"sequence": "TAATAAACTTAAAAATGTACATATATTTATTATTAC [XGTACX_site4321]", "gcPBM binding intensity (ln)": "8.56 ± 0.45"},
      {"sequence": "AAGAAAATGTATATATGTACATACAATCAAAAGAAG [XGTACX_site3454]", "gcPBM binding intensity (ln)": "9.01 ± 0.48"},
      {"sequence": "AGTTTAATTTTGTATACACACATTTGAATTATTAAT [CACACA_site7625]", "gcPBM binding intensity (ln)": "9.13 ± 0.37"},
      {"sequence": "AACAAATATGATTTTTTATATATTTTTAAATTTGGT [GTGCAC_negctrl_site189]", "gcPBM binding intensity (ln)": "8.32 ± 0.48"},
      {"sequence": "AGCTACAAAAATTAATATATATATGTATAGTTATAC [TGCATGCA_negctrl_site531]", "gcPBM binding intensity (ln)": "8.64 ± 0.42"},
      {"sequence": "TATATCTATTTCAAATGTACTTATATGATTCTTATA [XGTACX_site6277]", "gcPBM binding intensity (ln)": "8.6 ± 0.45"},
      {"sequence": "GTTCATATAATAAAATGTACATAATATATTATATAT [XGTACX_site7623]", "gcPBM binding intensity (ln)": "8.76 ± 0.36"},
      {"sequence": "AAATTACTGTAAAAAAGTACAGAAGTTCTTATTTTT [XGTACX_site7416]", "gcPBM binding intensity (ln)": "8.44 ± 0.35"},
      {"sequence": "TATATGTAGATTAAACGTACTTACAACGGAATTATC [XGTACX_site3036]", "gcPBM binding intensity (ln)": "8.75 ± 0.44"},
      {"sequence": "GTATTATATTTTAATACACACCCAAATATTAAAAAG [CACACA_site8968]", "gcPBM binding intensity (ln)": "8.73 ± 0.31"},
      {"sequence": "TGCCATCATATCATAGGTACACAAACATATAAAGAA [XGTACX_site4137]", "gcPBM binding intensity (ln)": "8.91 ± 0.48"},
      {"sequence": "AAATGTTCAGAAACTATTATAAAAATGGAATAATAT [CACACA_negctrl_site1544]", "gcPBM binding intensity (ln)": "8.59 ± 0.49"},
      {"sequence": "TAAATATTATATTTATGTACATAAGTTTTTTTTAAT [XGTACX_site3559]", "gcPBM binding intensity (ln)": "8.49 ± 0.48"},
      {"sequence": "CTTAATATGGATATTGCATGTAGAACATGAACAATA [TGCATGCA_site760]", "gcPBM binding intensity (ln)": "8.63 ± 0.4"}
    ]}
  ]
}
